# In PubChem BioAssay AID1030 (National Center for Advancing Translational Sciences (NCATS), 2008):
# The whole screen tested about 220,000 compounds, of which about 16,000 (7.3%) were called active. The shares of active, inactive and inconclusive entries below differ from those in the screen. Calls follow the shape of the dose curve; as a rule, active = well fitted inhibition curve with a large enough effect (not every such curve was filed as active); inconclusive = small, poorly fitted or top-dose-only effect, or another doubt; inactive = no such curve, though single readings can be large or run the other way. No potency is given beside an inconclusive call; the fits are too rough.
# Molecular target: Aldehyde dehydrogenase 1A1 (Homo sapiens) (UniProt P00352)
# Assay: qHTS Assay for Inhibitors of Aldehyde Dehydrogenase 1 (ALDH1A1);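 as to activity, negative = inhibition: plate controls were no enzyme wells and a reference inhibitor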
# Conditions: Purified ALDH1A1, NADH fluorescence, propionaldehyde substrate; series mostly up to 75.3 µM; activity, negative = inhibition: at the top concentration
# Potency is read from the fitted curve at half-maximal effect; tags tell the direction and shape of the fitted curve.
# Chain of UniProt P00352 (P00352 whole entry, looked up): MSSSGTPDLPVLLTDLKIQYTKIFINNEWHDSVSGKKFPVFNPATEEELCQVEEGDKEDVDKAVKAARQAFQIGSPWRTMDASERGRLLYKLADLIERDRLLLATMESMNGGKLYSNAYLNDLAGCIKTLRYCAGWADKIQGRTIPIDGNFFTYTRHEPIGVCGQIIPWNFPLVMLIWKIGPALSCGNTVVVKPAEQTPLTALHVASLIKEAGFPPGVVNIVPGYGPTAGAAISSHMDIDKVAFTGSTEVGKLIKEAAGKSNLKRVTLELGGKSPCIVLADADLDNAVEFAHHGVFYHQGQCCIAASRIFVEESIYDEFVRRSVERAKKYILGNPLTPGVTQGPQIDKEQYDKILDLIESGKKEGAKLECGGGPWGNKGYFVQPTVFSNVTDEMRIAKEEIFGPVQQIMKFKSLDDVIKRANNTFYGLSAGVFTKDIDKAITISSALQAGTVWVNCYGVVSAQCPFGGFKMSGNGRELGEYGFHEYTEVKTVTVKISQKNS
Structure (SMILES),"activity, negative = inhibition",Potency
CC(=NCCc1c(C)[nH]c2ccc(C)cc12)C1=C(O)CC(c2ccccc2)CC1=O (stereo not given),inactive: -6.98%,
COc1cc(-c2nc3cnccn3c2Nc2c(C)cccc2C)ccc1O,,"inconclusive [inhibitor, single point]"
O=C(N/N=C1\CC2CC=CC12)c1ccc(O)cc1 (stereo not given),,"inconclusive [inhibitor, single point]"
Cc1ccc2nc(-c3ccccc3)c(CN3CCN(c4ccccc4F)CC3)n2c1,,"inconclusive [inhibitor, single point]"
CCN(CC)c1ccc(/C=C2/C(=O)N(c3ccc([N+](=O)[O-])cc3)N=C2N2CCOCC2)cc1,,active: 4.47 µM
CN(C)Cc1ccccc1Sc1cccc2ccccc12,,"inconclusive [inhibitor, single point]"
CCOc1ccccc1-c1nc(-c2cc3ccc(C)cc3[nH]c2=O)no1,,"inconclusive [inhibitor, partial curve]"
CCC(=O)N1CCc2cc(S(=O)(=O)NCCC(=O)N3CCN(Cc4ccccc4)CC3)ccc21,,"inconclusive [inhibitor, single point]"
Cc1csc2nc(CCNS(=O)(=O)c3ccc4c(c3)OCCO4)cn12,,"inconclusive [inhibitor, single point]"
O=C(Nc1ccccc1)c1cc(Cl)nc2ccccc12,inactive: -7.25%,
COc1cc(NS(=O)(=O)c2ccc(N/C=C(\C#N)c3nc4ccccc4o3)cc2)nc(OC)n1,inactive: 14.9%,
O=C(COC(=O)CNS(=O)(=O)/C=C/c1ccccc1)Nc1cc(S(=O)(=O)N2CCCCC2)ccc1Cl,inactive: -8.74%,
O=C(O)CCc1ccc(-c2ccc(Br)cc2)o1,,"inconclusive [inhibitor, single point]"
Cc1ccc(Cn2nc(C)c(NC(=O)c3cc(C)no3)c2C)cc1,inactive: 16.2%,
Cc1cc(N2CCN(C)CC2)nc2ccc(NC(=O)CCC(=O)NCCC(C)C)cc12,,"inconclusive [inhibitor, single point]"
Cc1ccc(NC(=S)NCCN(C2CCCCC2)C2CCCC2)cc1C,,"inconclusive [inhibitor, single point]"
COc1ccc(C(=O)COC(=O)C(CCSC)NS(=O)(=O)c2ccc(Cl)cc2)cc1 (stereo not given),,"inconclusive [inhibitor, single point]"
COc1ccc(-n2c(SCC(=O)N3CCCCC3)nc(O)cc2=O)cc1,,active: 22.4 µM
COc1ccc(-c2cc(C(=O)Nc3ccccc3O)c3ccccc3n2)cc1OC,,"inconclusive [inhibitor, single point]"
COc1cc(-c2cc(C(=O)Nc3c(Cl)cc(Cl)cc3Cl)c3ccccc3n2)cc(OC)c1OC,,"inconclusive [inhibitor, single point]"
C=CCNC(=O)c1c2c(nc3ccccc13)-c1ccccc1CC2,,"inconclusive [inhibitor, partial curve]"
Cc1ccc(Cl)cc1NC(=O)C[n+]1ccc(Cc2ccc([N+](=O)[O-])cc2)cc1,,"inconclusive [inhibitor, full curve]"
NC(=O)Cn1c2[n+](c3ccccc31)CC(O)CS2 (stereo not given),,active: 11.2 µM

Structure (SMILES),"activity, negative = inhibition",Potency
CN1C/C(=C\c2ccc(N3CCOCC3)cc2)C(=O)/C(=C/c2ccc(N3CCOCC3)cc2)C1,,"inconclusive [inhibitor, single point]"
OCCC#Cc1ccc(CN2CCN(C3CCCCC3)C(CCO)C2)cc1 (stereo not given),inactive: 5.02%,
CCOC(=O)Cc1csc(NC(=S)NC(=O)c2ccc(C)cc2)n1,,active: 39.8 µM
Cc1nnc(C)n1N,inactive: 6.84%,
CC(NC(=O)OCc1ccccc1)C(=O)Oc1cc2oc(=O)cc(-c3ccccc3)c2cc1Cl (stereo not given),,"inconclusive [inhibitor, partial curve]"
COCCn1nnnc1C(c1ccc(OC)c(OC)c1)N1CCc2ccccc21 (stereo not given),,"inconclusive [inhibitor, single point]"
O=c1[nH]c(SCc2ccc(Cl)cc2)nc2[nH]ncc12,inactive: 8.4%,
C=CCOc1ccc(CN(C)CC(=O)Nc2ccccc2[N+](=O)[O-])cc1,,"inconclusive [inhibitor, single point]"
CCOC(=O)c1c(C)[nH]c(C2=NNC(=NC(C)COC)SC2)c1C (stereo not given),,active: 10 µM
COC(=O)c1ccc2nc(NC(=O)CN3C(=O)CCC3=O)sc2c1,,"inconclusive [inhibitor, single point]"
CC1(C(=O)CSc2nc3ccccc3s2)CCC(=O)O1 (stereo not given),,"inconclusive [inhibitor, single point]"
O=C(CC1C(=O)NCCN1Cc1ccc(-c2ccccc2)cc1)NCC1CCOCC1 (stereo not given),,"inconclusive [inhibitor, single point]"
Cc1ccc(NC(=O)COC(=O)c2cc(Cl)ccc2[N+](=O)[O-])c(C)c1,,"inconclusive [inhibitor, single point]"
CC1=CC(=O)C=C(C)C1=NOS(=O)(=O)c1ccccc1,,"inconclusive [inhibitor, single point]"
COc1ccc(C(C)C)cc1S(=O)(=O)NCc1ccccn1,,"inconclusive [inhibitor, single point]"
CCCCCCCCCCn1c2c(c(=N)c3c1CCC3)CCC2,inactive: -3.02%,
CC(C)(C)NC(=O)CN(C(=O)C1(C)CC(=O)N=C2C=CC=CN21)C1CCCC1 (stereo not given),,"inconclusive [inhibitor, partial curve]"
O=[N+]([O-])c1cccc(Nc2c3ccccc3nc3ccccc23)c1,,"inconclusive [inhibitor, partial curve]"
CC(C)(Sc1cc(C(C)(C)C)c(O)c(C(C)(C)C)c1)Sc1cc(C(C)(C)C)c(O)c(C(C)(C)C)c1,,inactive
CN(C)c1ccc(C=C2C(=O)OC(C)(C)OC2=O)cc1,,active: 0.794 µM
CC1CCCC(NC(=O)COC(=O)CN2C(=O)C3CCCCC3C2=O)C1C (stereo not given),,active: 25.1 µM
O=C1NC2(NN1c1ccccc1)C1CC3CC(C1)CC2C3 (stereo not given),inactive: 3.86%,
